# From PubChem BioAssay (Tox21)
# The inconclusive results got no clear call from the source; some entries with a clear call stand among them for comparison. For some assays here: Potencies beside an inconclusive call are fits to weak or partial responses and may not hold up. The source made the active and inactive calls. Unless noted, calls follow the shape of the full dose curve.
# Key:
# [1] = target: Peroxisome proliferator-activated receptor delta (Homo sapiens) (UniProt Q03181); experiment: qHTS assay to identify small molecule antagonists of the peroxisome proliferator-activated receptor delta (PPARd) signaling pathway (AID 743215; active = well fitted inhibition curve with a large enough effect in the signal ratio in the repeat runs, not every such curve was filed as active; inconclusive = weak or mixed curves, or effect the other way; inactive = no such curve, though single readings can be large or run the other way; the % refers to the signal ratio;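 also: cells stimulated with agonist L165041 at 300 nM final during compound exposure; % is scaled to controls: 0 for no effect and ±100 for the full control effect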); conditions: HEK293H PPARd-UAS-bla, beta-lactamase FRET ratio, antagonist, 17 h; ratio activity, negative = inhibition: at 62 µM (top of the series) unless noted
# Summary of the method: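 With L165041 present at 300 nM final, compounds were incubated 17 h at 37 C on PPARd UAS-bla HEK293H cells. A FRET-based beta-lactamase substrate was then applied for 2 h at room temperature and fluorescence intensity recorded.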
# [2] = target: Vitamin D3 receptor (Homo sapiens) (UniProt P11473); experiment: qHTS assay to identify small molecule agonists of the vitamin D receptor (VDR) signaling pathway (AID 743222); conditions: HEK293T VDR-UAS-bla, beta-lactamase FRET ratio, 16 h; activation: at 63.5 µM (top of the series) unless noted; also: potency is read from the fitted curve at half-maximal effect; as to activation: % is scaled to controls: 0 for no effect and ±100 for the full control effect
# Summary of the method: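 VDR-bla cells were seeded, left 4 h, treated with compounds in DMSO for 16 h, incubated 2 h at RT with B/G FRET substrate, and read for fluorescence.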
# [3] = qHTS assay to identify small molecule agonists of the endoplasmic reticulum stress response signaling pathway (AID 1159516; active = well fitted activation curve with a large enough effect in the signal ratio in the repeat runs, not every such curve was filed as active; inconclusive = weak or mixed curves, or effect the other way; the % refers to the signal ratio; also: potency is read from the fitted curve at half-maximal effect); conditions: ESRE-bla HeLa, ER stress beta-lactamase reporter, 5 h; activation: at 61 µM (top of the series) unless noted
# Summary of the method: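 Reporter HeLa cells (ESRE-beta-lactamase) underwent 5 hr compound incubation at 37 C and 5% CO2 in quantitative HTS format. Detection followed 2 hr of FRET substrate loading at room temperature.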
# [4] = qHTS assay to identify small molecule agonists of the AP-1 signaling pathway (AID 1159526); conditions: ME-180 (cervical carcinoma) AP-1-bla reporter, beta-lactamase FRET ratio, 5 h; activation: at 76.8 µM (top of the series) unless noted; also: potency is read from the fitted curve at half-maximal effect; as to activation: % is scaled to controls: 0 for no effect and ±100 for the full control effect
# [5] = qHTS assay to identify small molecule antagonists of the peroxisome proliferator-activated receptor delta (PPARd) signaling pathway - cell viability counter screen (AID 743213; active = well fitted curve in the direction sought with a large enough effect in the repeat runs; inconclusive = weak or mixed curves; inactive = no such curve, though single readings can be large; an effect the other way counts as inactive or inconclusive; also: nearly all actives have a fitted effect of over 50% in size; also: potency is read from the fitted curve at half-maximal effect); conditions: PPARd-bla HEK293H viability, CellTiter-Glo luminescence, 17 h; viability change, negative = cytotoxic: at 62 µM (top of the series) unless noted
# Summary of the method: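 PPARd-bla HEK293H cells were treated with compounds plus agonist L165041 (300 nM final) for 17 h at 37 C. Viability was then read in the same wells by CellTiter-Glo luminescence after 30 min at room temperature.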
# [6] = target: Bile acid receptor (Homo sapiens) (UniProt Q96RI1); experiment: qHTS assay to identify small molecule agonists of the farnesoid-X-receptor (FXR) signaling pathway (AID 743220; active = well fitted activation curve with a large enough effect in the signal ratio in the repeat runs, not every such curve was filed as active; inconclusive = weak or mixed curves, or effect the other way; the % refers to the signal ratio; also: potency is read from the fitted curve at half-maximal effect); conditions: HEK293T FXR-UAS-bla, beta-lactamase FRET ratio, 16 h; activation: at 62.6 µM (top of the series) unless noted
# Summary of the method: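 Beta-lactamase reporter under UAS control in GeneBLAzer FXR HEK 293T cells (5000/well) measured with LiveBLAzer FRET substrate after 2 h at room temperature. Compound exposure lasted 16 h at 37C.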
# [7] = qHTS assay to identify small molecule antagonists of the farnesoid-X-receptor (FXR) signaling pathway - cell viability counter screen (AID 743221; active = well fitted cell-killing curve with a large enough effect in the repeat runs, not every such curve was filed as active; inconclusive = weak or mixed curves, or effect the other way; inactive = no such curve, though single readings can be large or run the other way; also: % is scaled to controls: 0 for no effect and ±100 for the full control effect; nearly all actives have a fitted effect of over 50% in size); conditions: FXR-bla HEK293T viability, CellTiter-Glo luminescence, 16 h; activity change, negative = cytotoxicity: at 62.6 µM (top of the series)
# Summary of the method: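 Multiplexed counter screen: viability of FXR-bla HEK 293T cells under agonist stimulation by chenodeoxycholic acid (50 uM, final) and test compound for 16 h at 37 C, measured by CellTiter-Glo luminescence in the reporter wells.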
# [8] = target: Vitamin D3 receptor (Homo sapiens) (UniProt P11473); experiment: qHTS assay to identify small molecule antagonists of the vitamin D receptor (VDR) signaling pathway (AID 743223; active = well fitted inhibition curve with a large enough effect in the signal ratio in the repeat runs, not every such curve was filed as active; inconclusive = weak or mixed curves, or effect the other way; inactive = no such curve, though single readings can be large or run the other way; the % refers to the signal ratio; also: % is scaled to controls: 0 for no effect and ±100 for the full control effect); conditions: VDR-UAS-bla HEK293T, beta-lactamase FRET ratio, 16 h; activity change, negative = inhibition: at 61 µM (top of the series) unless noted
# Summary of the method: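 Cells carrying a VDR-driven beta-lactamase reporter (VDR-bla) were co-treated with compound and 3 nM final 1alpha,25-dihydroxyvitamin D3 for 16 h at 37C; reporter activity was measured as FRET substrate fluorescence after 2 h at room temperature.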
# [9] = qHTS assay to identify small molecule antagonists of the retinoid acid receptor (RAR) signaling pathway - cell viability counter screen (AID 1159551; active = well fitted curve in the direction sought with a large enough effect in the repeat runs; inconclusive = weak or mixed curves; inactive = no such curve, though single readings can be large; an effect the other way counts as inactive or inconclusive; also: % is scaled to controls: 0 for no effect and ±100 for the full control effect; nearly all actives have a fitted effect of over 35% in size)
# Summary of the method: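 Seed C3RL4 cells; next day add compound, then retinol to 1 uM final; incubate 6 h at 37 C; add CellTiter-Glo; read luminescence after 30 min at RT.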
# [10] = target: Retinoic acid receptor RXR-alpha (Homo sapiens) (UniProt P19793); experiment: qHTS assay to identify small molecule agonists of the RXR signaling pathway (AID 1159527); conditions: HEK293T RXRa-UAS-bla, beta-lactamase ratio, 16 h; activation: at 76.8 µM (top of the series) unless noted; also: % is scaled to controls: 0 for no effect and ±100 for the full control effect; nearly all actives have a fitted effect of over 35% in size
# Summary of the method: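 Cells plated at 2,000/well, rested 5 hr at 37 C, pin-dosed with DMSO compound solutions, incubated 16 hr, then loaded with B/G FRET substrate for 2 hr at RT before dual-emission fluorescence reading.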
# [11] = qHTS assay to identify small molecule agonists of the vitamin D receptor (VDR) signaling pathway - cell viability counter screen (AID 743224; active = well fitted curve in the direction sought with a large enough effect in the repeat runs; inconclusive = weak or mixed curves; inactive = no such curve, though single readings can be large; an effect the other way counts as inactive or inconclusive; also: % is scaled to controls: 0 for no effect and ±100 for the full control effect; nearly all actives have a fitted effect of over 50% in size); conditions: VDR-bla HEK293T viability, CellTiter-Glo luminescence, 16 h; activity change, negative = cytotoxicity: at 62.6 µM (top of the series)
# Summary of the method: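 Here cell health was gauged by luminescent ATP detection (CellTiter-Glo, 30 min RT) in VDR-bla cells that had been incubated with test compounds for 16 h at 37C and 5% CO2.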
# [12] = qHTS assay to identify small molecule agonists of the RXR signaling pathway - cell viability counter screen (AID 1159529; active = well fitted curve in the direction sought with a large enough effect in the repeat runs; inconclusive = weak or mixed curves; inactive = no such curve, though single readings can be large; an effect the other way counts as inactive or inconclusive; also: nearly all actives have a fitted effect of over 50% in size; also: potency is read from the fitted curve at half-maximal effect)
# Summary of the method: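 Steps: seed RXR-alpha-UAS-bla HEK 293T cells in assay medium containing 2% charcoal-stripped FBS; incubate 5 hr; add compounds in DMSO; incubate 16 hr at 37 C; after the bla read, add CellTiter-Glo and read luminescence at 30 min.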
# [13] = target: Bile acid receptor (Homo sapiens) (UniProt Q96RI1); experiment: qHTS assay to identify small molecule antagonists of the farnesoid-X-receptor (FXR) signaling pathway (AID 743217; active = well fitted inhibition curve with a large enough effect in the signal ratio in the repeat runs, not every such curve was filed as active; inconclusive = weak or mixed curves, or effect the other way; inactive = no such curve, though single readings can be large or run the other way; the % refers to the signal ratio; also: potency is read from the fitted curve at half-maximal effect); conditions: HEK293T FXR-UAS-bla, beta-lactamase ratio, CDCA-stimulated, 16 h; activity change, negative = inhibition: at 62.6 µM (top of the series) unless noted
# Summary of the method: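 In this cell-based antagonist screen, inhibition of CDCA-driven (50 uM final) UAS-beta-lactamase expression in HEK 293T cells was measured by FRET fluorescence following 16 h compound exposure at 37 °C.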
# [14] = target: Peroxisome proliferator-activated receptor delta (Homo sapiens) (UniProt Q03181); experiment: qHTS assay to identify small molecule agonists of the peroxisome proliferator-activated receptor delta (PPARd) signaling pathway (AID 743212); conditions: HEK293H PPARd-UAS-bla, beta-lactamase FRET ratio, 17 h; activation: at 62.6 µM (top of the series) unless noted; also: potency is read from the fitted curve at half-maximal effect
# Summary of the method: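 GeneBLAzer UAS-bla HEK293H cells carrying a PPARδ construct were exposed to compounds at 37 °C. Beta-lactamase activity was read by FRET fluorescence after 2 h at room temperature with LiveBLAzer B/G substrate.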
# Tags tell the direction and shape of the fitted curve or compound fluorescence and quenching.
# Chain of UniProt Q03181 (Q03181 whole entry, looked up): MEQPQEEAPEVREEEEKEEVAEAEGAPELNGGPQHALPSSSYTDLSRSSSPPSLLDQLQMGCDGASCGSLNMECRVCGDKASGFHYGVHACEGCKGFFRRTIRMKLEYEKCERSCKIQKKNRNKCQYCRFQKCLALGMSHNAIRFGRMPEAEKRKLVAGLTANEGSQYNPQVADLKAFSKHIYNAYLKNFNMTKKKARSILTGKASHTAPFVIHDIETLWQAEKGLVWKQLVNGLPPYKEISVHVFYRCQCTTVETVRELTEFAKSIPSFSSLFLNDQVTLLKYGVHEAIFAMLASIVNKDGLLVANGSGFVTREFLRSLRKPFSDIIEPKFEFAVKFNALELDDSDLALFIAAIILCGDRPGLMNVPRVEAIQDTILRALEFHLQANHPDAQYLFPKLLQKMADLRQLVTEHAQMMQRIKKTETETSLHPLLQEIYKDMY
# Chain of UniProt P19793 (P19793 whole entry, looked up): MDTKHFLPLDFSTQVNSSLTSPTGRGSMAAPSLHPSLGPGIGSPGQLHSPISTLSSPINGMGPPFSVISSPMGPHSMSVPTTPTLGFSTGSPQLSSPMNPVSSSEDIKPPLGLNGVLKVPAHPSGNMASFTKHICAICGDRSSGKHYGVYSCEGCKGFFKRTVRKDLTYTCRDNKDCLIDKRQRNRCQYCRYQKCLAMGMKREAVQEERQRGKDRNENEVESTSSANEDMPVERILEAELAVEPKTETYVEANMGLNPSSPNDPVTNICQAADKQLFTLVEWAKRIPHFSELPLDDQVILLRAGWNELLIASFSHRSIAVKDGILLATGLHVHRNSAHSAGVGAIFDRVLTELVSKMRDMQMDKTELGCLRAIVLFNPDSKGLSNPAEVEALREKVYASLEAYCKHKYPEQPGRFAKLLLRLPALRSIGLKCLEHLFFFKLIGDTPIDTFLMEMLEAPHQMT
# Chain of UniProt P11473 (P11473 whole entry, looked up): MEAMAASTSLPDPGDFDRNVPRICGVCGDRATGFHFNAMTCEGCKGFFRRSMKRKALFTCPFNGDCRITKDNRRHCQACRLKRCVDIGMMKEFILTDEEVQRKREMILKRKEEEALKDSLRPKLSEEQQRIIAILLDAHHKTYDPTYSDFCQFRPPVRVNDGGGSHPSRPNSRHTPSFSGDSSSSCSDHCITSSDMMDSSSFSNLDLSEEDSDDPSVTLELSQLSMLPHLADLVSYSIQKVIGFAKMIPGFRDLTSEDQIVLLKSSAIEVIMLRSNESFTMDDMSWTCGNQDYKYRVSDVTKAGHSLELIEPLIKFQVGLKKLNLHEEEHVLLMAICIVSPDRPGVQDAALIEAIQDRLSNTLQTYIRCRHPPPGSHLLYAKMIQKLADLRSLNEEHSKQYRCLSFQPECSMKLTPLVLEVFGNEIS
# Chain of UniProt Q96RI1 (Q96RI1 whole entry, looked up): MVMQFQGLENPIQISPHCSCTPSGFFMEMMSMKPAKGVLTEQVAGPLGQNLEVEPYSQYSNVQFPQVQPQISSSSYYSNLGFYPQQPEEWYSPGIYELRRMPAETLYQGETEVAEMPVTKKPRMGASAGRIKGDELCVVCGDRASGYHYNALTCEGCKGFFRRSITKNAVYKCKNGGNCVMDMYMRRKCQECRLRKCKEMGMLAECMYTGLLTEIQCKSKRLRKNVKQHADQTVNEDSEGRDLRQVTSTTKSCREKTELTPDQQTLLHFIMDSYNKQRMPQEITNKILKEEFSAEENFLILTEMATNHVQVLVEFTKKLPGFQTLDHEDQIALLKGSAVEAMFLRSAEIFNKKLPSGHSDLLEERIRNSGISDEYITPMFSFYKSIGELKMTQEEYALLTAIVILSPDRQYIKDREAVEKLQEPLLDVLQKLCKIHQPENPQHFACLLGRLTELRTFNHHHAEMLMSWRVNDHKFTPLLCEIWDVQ
structure (smiles),measurement,setting,value
Cc1ccc(NC(=O)N(C)C)cc1NC(=O)N(C)C,Potency,[1],inactive
same,Potency,[2],inactive
same,Potency,[3],"inconclusive: 0.692 µM [rising, partial curve, poor fit]"
same,Potency,[4],inactive
CC(=O)[C@H]1[C@H](C#N)C[C@H]2[C@@H]3CC=C4C[C@@H](O)CC[C@]4(C)[C@H]3CC[C@@]21C,Potency,[5],"inconclusive: 29.8 µM [cytotoxic, partial curve, poor fit]"
same,Potency,[6],"inconclusive: 9.41 µM [fluorescent, single point]"
same,Potency,[7],inactive
same,Potency,[2],"inconclusive: 13.3 µM [rising, partial curve, poor fit]"
same,"activity change, negative = inhibition",[8],inconclusive: -19.2%
same,Potency,[3],inconclusive: 13.3 µM
same,Potency,[4],"inconclusive: 33.4 µM [activator, partial curve, poor fit]"
O=C(O)CCCCCCCCCC(=O)O,Potency,[1],inactive
same,Potency,[3],inactive
same,Potency,[4],inactive
CNS(=O)(=O)Cc1ccc2[nH]cc(CCN(C)C)c2c1,Potency,[5],inactive
same,"activity change, negative = inhibition",[8],inconclusive: -3.4%
same,Potency,[3],inactive
same,Potency,[4],"inconclusive: 0.0024 µM [rising, full curve, poor fit]"
same,Potency,[9],inactive
O=C(O)CCCc1ccccc1,Potency,[8],inactive
same,Potency,[3],inactive
same,Potency,[4],inactive
same,Potency,[10],inactive
Cc1cc(C(C)(C)C)cc(C)c1CC1=NCCN1,"ratio activity, negative = inhibition",[1],inconclusive: 12.6%
same,Potency,[11],inactive
same,Potency,[3],"inconclusive: 26.8 µM [activator, single point]"
same,Potency,[4],inactive
same,Potency,[12],"inconclusive: 6.01 µM [cytotoxic, partial curve, poor fit]"
C/C=C/C=C/C=O,Potency,[5],"inconclusive: 1.73 µM [cytotoxic, full curve, poor fit]"
same,"ratio activity, negative = inhibition",[1],inconclusive: -10.7%
same,Potency,[2],inactive
same,"activity change, negative = inhibition",[8],inconclusive: 2.61%
same,Potency,[3],"inconclusive: 43.3 µM [rising, single point]"
same,activation,[4],inconclusive: 19.6%
same,Potency,[12],inactive
CCN(C(=O)c1cc(C)cc(OC[C@H](C)Nc2ccncc2)c1)C(C)C,Potency,[13],"inconclusive: 38.5 µM [activator, single point]"
same,Potency,[3],"inconclusive: 15.3 µM [falling, partial curve]"
same,Potency,[4],"inconclusive: 13.6 µM [cytotoxic, partial curve]"
same,activation,[10],inconclusive: -4.78% [at 35.3 µM]
Cc1onc(-c2c(Cl)cccc2Cl)c1C(=O)N[C@@H]1C(=O)N2[C@@H]1SC(C)(C)[C@@H]2C(=O)O,"activity change, negative = inhibition",[8],inconclusive: 1.4%
same,Potency,[3],"inconclusive: 3.38 µM [inhibitor, partial curve, poor fit]"
same,activation,[4],inconclusive: -15.2% [at 35.3 µM]
same,activation,[10],inconclusive: 20.2% [at 35.3 µM]
Nc1ccc(N=Nc2ccc(N)cc2)cc1,Potency,[5],"inconclusive: 0.0062 µM [cytotoxic, single point]"
same,Potency,[8],inactive
same,activation,[3],inconclusive: -9.11%
same,Potency,[4],inactive
same,Potency,[12],"inconclusive: 24.5 µM [cytotoxic, single point]"
O=C(O)c1cccc(C[C@@H]2COc3ccc(OCc4nc5cc(F)ccc5s4)cc3[C@@H]2O)c1,Potency,[3],"inconclusive: 21.9 µM [falling, partial curve, poor fit]"
same,activation,[10],inconclusive: -2.79%
Brc1c2ccccc2cc2ccccc12,Potency,[14],"inconclusive: 49.5 µM [rising, partial curve]"
same,"ratio activity, negative = inhibition",[1],inconclusive: 5.06% [at 80.4 µM]
same,activation,[2],inconclusive: 26.1% [at 81.1 µM]
same,Potency,[3],active: 49.5 µM
same,Potency,[10],inactive
same,Potency,[12],active: 35 µM
